Results on 42 sequences are retold here after publication PMC7819943, “Rice protein-binding microarrays: a tool to detect cis-acting elements near promoter regions in rice”.

The list shows a part of the results.

The target of this test is T1, OsWOX13 (Oryza sativa, UniProt Q5QMM3 1-267).
T1 sequence: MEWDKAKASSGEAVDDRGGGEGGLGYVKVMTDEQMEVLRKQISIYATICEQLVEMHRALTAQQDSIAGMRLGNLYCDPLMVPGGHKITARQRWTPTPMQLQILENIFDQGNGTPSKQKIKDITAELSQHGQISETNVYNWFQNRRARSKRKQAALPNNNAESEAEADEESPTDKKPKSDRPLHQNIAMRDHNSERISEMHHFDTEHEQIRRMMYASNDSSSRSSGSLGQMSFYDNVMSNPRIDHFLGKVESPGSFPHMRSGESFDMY
The experiment in a line: protein-binding microarray (RPBM); PBS, 2% BSA, 51.3 ng/ul salmon testes DNA, 50 uM zinc acetate, 200 nM TF, 25 C, 1 h; high values mean tight binding. The conditions noted are these: protein: recombinant; tags: N-terminal polyhistidine and DsRed monomer fusion (pET32a); label: CyDye5-dUTP incorporated in the synthesized complementary strand; 3' TTTTT single-stranded linker to array surface; dsDNA, one strand shown. The method, boiled down:
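An Axon 4000B scanner gave the binding signal as per-feature fluorescence intensity in arbitrary units. This followed washing of a custom Agilent array that had been incubated for 1 h at 25 °C with 200 nM protein in PBS, 2% BSA, salmon testes DNA and 50 µM zinc acetate. The proteins were transcription factors fused at the N-terminus to polyhistidine and DsRed, expressed in E. coli BL21-CodonPlus and purified on Ni–NTA.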
For the sequence “TGAGATAAAATGTGATTTTAGACTTGAGTGGCAAATGGTACGGAGTCACCTAGTGCAG”, the binding signal is 4000 fluorescence intensity (a.u.).

Regarding “TTTGCTTAGATTAATCTGTCAAGAACAGTTTCGCCGCTAGCGGAGTCACCTAGTGCAG”, the binding signal is 6090 fluorescence intensity (a.u.).

With “ACATAATCCAATCAAGTCTTTGGTTACTACAAATAGAGGCCGGAGTCACCTAGTGCAG”, the binding signal was 14000 fluorescence intensity (a.u.).

Take “CTTAATTTGCCAGCTGCTTGTGTGTTCTCCTTGCCGATCCCGGAGTCACCTAGTGCAG”: the binding signal is 27700 fluorescence intensity (a.u.).

“ACCTGATGGACCGACCTTCCTCTTATTTTCTTGGATAATTCGGAGTCACCTAGTGCAG”: the binding signal was 5970 fluorescence intensity (a.u.).

On to “TATTGTCAAATGATATTAATTGATTATGCTGGGGCTAACACGGAGTCACCTAGTGCAG”, for which the binding signal was 30700 fluorescence intensity (a.u.).

As for “GACGGATTGCTTTGTGCATTGTCAATCAGTACATCCTCTTCGGAGTCACCTAGTGCAG”, the binding signal was 7970 fluorescence intensity (a.u.).

For “CTAGATTTATAATTAAATAAATTATTATAATATATAACTCCGGAGTCACCTAGTGCAG”, the binding signal is 42700 fluorescence intensity (a.u.).

Take “GGCCGATTGATTGGGTCCGAGTAATCTCGGAAATGTGGGGCGGAGTCACCTAGTGCAG”: the binding signal was 53600 fluorescence intensity (a.u.).

As for “TAGGCAATTACGGGCTGAAATTACCAGAAGCTACGGGTCACGGAGTCACCTAGTGCAG”, the binding signal was 17000 fluorescence intensity (a.u.).

As for “TGTTATAATAATGTGTGATTAAGTTTTAATTATTACAAACCGGAGTCACCTAGTGCAG”, the binding signal is 20900 fluorescence intensity (a.u.).

In the case of “TTTAATCAACCCGTGATTTTGTAATTCATATCCATTCATCCGGAGTCACCTAGTGCAG”, the binding signal was 8690 fluorescence intensity (a.u.).

For the sequence “AATATGATTATTCATAGAGTAAAGTGTACGGGCGATCCTTCGGAGTCACCTAGTGCAG”, the binding signal is 9750 fluorescence intensity (a.u.).

“TGACGGGATTCACTAATTGGAACTTGGTGTTGGGAGTCCCCGGAGTCACCTAGTGCAG”: the binding signal is 13900 fluorescence intensity (a.u.).

As to “AGCCTATTTAGTCCATGATTAGCTATAAGTGCTACAGTAACGGAGTCACCTAGTGCAG”, the binding signal was 8930 fluorescence intensity (a.u.).

“GTCAATTACTATCTATATACATTGTGGAAATATAAATAACCGGAGTCACCTAGTGCAG”: the binding signal was 3200 fluorescence intensity (a.u.).

For “TATATAAATTGGACGTGCGAGGCTGAGAGAGAGACGCACACGGAGTCACCTAGTGCAG”, the binding signal is 5470 fluorescence intensity (a.u.).

In the case of “GTTTCAATTATTTGACATCCAACCCCACTTTTATTCACTTCGGAGTCACCTAGTGCAG”, the binding signal was 10600 fluorescence intensity (a.u.).

Turning to “CACCATAATTGTATTATTCTAGTGCTTTATCACACAGAATCGGAGTCACCTAGTGCAG”, the binding signal was 11100 fluorescence intensity (a.u.).

Take “CTCAAATTTAGATAGTTTGTCAACACTGACATTGATTCTCCGGAGTCACCTAGTGCAG”: the binding signal is 16800 fluorescence intensity (a.u.).

On to “TCTAAGATTGGATTATAGTACGTACATTTGGGCCTTCCCTCGGAGTCACCTAGTGCAG”, for which the binding signal is 20100 fluorescence intensity (a.u.).

Regarding “CTCATTTCCTCATTGATTATAAGCTTGAGCTTTACTTAGTCGGAGTCACCTAGTGCAG”, the binding signal was 3500 fluorescence intensity (a.u.).

For the sequence “TATAAATTTAGTCAAATTTAAAGCAGTTTGATTTTGACCACGGAGTCACCTAGTGCAG”, the binding signal is 26800 fluorescence intensity (a.u.).

For the sequence “TGCCAACTTATCCATCAATTGAGATTAATGATTTGGTCTTCGGAGTCACCTAGTGCAG”, the binding signal is 13900 fluorescence intensity (a.u.).

As to “AGTTCTAATTAGTTTCAACTCGTACACGTAATTGCAATAACGGAGTCACCTAGTGCAG”, the binding signal was 13200 fluorescence intensity (a.u.).

Take “CCAGTATAATCATTGACTTTTGTGTGCTTAATGCATTTTCCGGAGTCACCTAGTGCAG”: the binding signal is 5600 fluorescence intensity (a.u.).

Regarding “CAGTGGAGGGTTGTGATTGGTTATGAAGAGAATGTTGGTGCGGAGTCACCTAGTGCAG”, the binding signal is 10200 fluorescence intensity (a.u.).

In the case of “AGTGATGAATTAGCCACCCACAACCACCAACTCCCTGATACGGAGTCACCTAGTGCAG”, the binding signal was 3560 fluorescence intensity (a.u.).

As for “TTATGAAATTATTATTTATTTTATTTGTGACTTTCTTTATCGGAGTCACCTAGTGCAG”, the binding signal was 5930 fluorescence intensity (a.u.).

As for “TAGCAGTGACGGTAATTAGCGCTAACTAGCAATATTTTCCCGGAGTCACCTAGTGCAG”, the binding signal is 12400 fluorescence intensity (a.u.).

For the sequence “TTGGGCCCAGATTGATTTAAGAAAGCCCATTTAGGCCACTCGGAGTCACCTAGTGCAG”, the binding signal was 9800 fluorescence intensity (a.u.).

In the case of “TCTAAATTTTATAGTTATTAAATAACTTTATCACAATAAACGGAGTCACCTAGTGCAG”, the binding signal was 6790 fluorescence intensity (a.u.).

As to “CATAAACTGAAGCTCATAATTGTTTGTGAAATCGTTTATCCGGAGTCACCTAGTGCAG”, the binding signal was 16900 fluorescence intensity (a.u.).

On to “GTCAATAGCTAAATTTATGATACTTATAACACATTGGAGGCGGAGTCACCTAGTGCAG”, for which the binding signal was 4030 fluorescence intensity (a.u.).

Regarding “CAAATTTAAATTTGAATTATATCCGATTTAAATTTGAATTCGGAGTCACCTAGTGCAG”, the binding signal is 21800 fluorescence intensity (a.u.).

For “AGCAAATGATCCATCATCATGTATTTGCTAGTATTACAGTCGGAGTCACCTAGTGCAG”, the binding signal was 4330 fluorescence intensity (a.u.).

Consider “ATTACACAGATTGCATATAAATTGCGAGACAAATCTTTTACGGAGTCACCTAGTGCAG”, for which the binding signal was 10000 fluorescence intensity (a.u.).

Take “ATTAATTATCTAATTAATTAATTAGCCCATCTGCTTACTTCGGAGTCACCTAGTGCAG”: the binding signal was 65000 fluorescence intensity (a.u.).

As for “AATAAACTGCAAACTATAACCCCTACCAGGGTTCACAATTCGGAGTCACCTAGTGCAG”, the binding signal was 4460 fluorescence intensity (a.u.).

For “TGGTGATCGAAATTGTCAAGTGCTTGAGTAGATAGAGATTCGGAGTCACCTAGTGCAG”, the binding signal was 5460 fluorescence intensity (a.u.).

For the sequence “TTTTATTACCTTAATTTTACTTTGGATCACCTCGACTCTCCGGAGTCACCTAGTGCAG”, the binding signal was 4050 fluorescence intensity (a.u.).

Turning to “ATCTTATTATTGTTATTTAATTTAGTTAAAATGAAATTCACGGAGTCACCTAGTGCAG”, the binding signal is 5810 fluorescence intensity (a.u.).
